The source of these data is PubChem BioAssay AID1508642 (National Center for Advancing Translational Sciences (NCATS), 2021).

Hit rate of the full screen: of about 43,000 compounds, about 200 (0.47%) were called active. Another 12% or so got no clear call; they are omitted. Calls follow the shape of the dose curve; as a rule, active = well fitted cell-killing curve with a large enough effect; inconclusive = small, poorly fitted or top-dose-only effect, or effect the other way; inactive = flat fitted curve, though single readings scatter. This is one part of the list.
% is scaled to controls: 0 for no effect and ±100 for the full control effect.

A short description of this assay: Cell viability qHTS assay in S16 Pmp22-F2sN cells. Also: nearly all actives have a fitted effect of over 65% in size. The conditions noted are these: S16 Pmp22-F2sN Schwann cells (luciferase reporters placed in the Pmp22 gene) viability, CellTiter-Glo, 24 h; series mostly up to 57.5 µM; activity change, negative = cytotoxicity: at the top concentration. The method in brief: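 Rat S16 Schwann reporter line, 24 h treatment with library compounds delivered at 23 nL per well. Cell viability by CellTiter-Glo luminescence.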
Regarding `COc1ccc(-n2c(=O)c3c4c(sc3n(Cc3ccc(F)cc3)c2=O)CCCC4)c(OC)c1`, the “activity change, negative = cytotoxicity” value is inactive: 3.16%.
The same measure for `COc1ccccc1NC(=O)C1=C(C)Nc2ncnn2C1c1ccccc1C(=O)O` (stereo not drawn): inactive: 1.83%; for `COc1ccc(NC(=O)c2cc(C3CC3)nc3c2c(C)nn3-c2ccccc2)cc1`: inactive: 13.7%; for `COc1ccccc1-c1nnc(SCC(=O)c2ccc(Cl)cc2)n1-c1ccccc1`: inactive: -2.71%.
With `CCOc1ccc(NC(=O)CSc2nc3c(oc4ccccc43)c(=O)n2-c2ccccc2C)cc1`, the “activity change, negative = cytotoxicity” value is inactive: -4.02%.
Turning to `CC(NC(=O)c1ccc2c(c1)CCN2S(=O)(=O)c1ccc(Cl)cc1)c1ccccc1` (stereo not drawn), the “activity change, negative = cytotoxicity” value is inactive: -15.2%.
In the case of `CCOc1ccc(C(=O)N2CCC(c3nc4ccccc4o3)CC2)cc1`, the “activity change, negative = cytotoxicity” value was inactive: 5.67%.
As to `CCOc1ccc(OCC)c(NC(=O)c2nnn(CC(=O)Nc3ccc(C)cc3C)c2N)c1`, the “activity change, negative = cytotoxicity” value is inactive: -3.94%.
As for `Cc1cc2n(n1)C(c1cc(C(C)(C)C)c(O)cc1O)Nc1ccccc1-2` (stereo not drawn), the figure is inactive: -28.3%; as for `COc1ccccc1CNC(=O)C(NS(=O)(=O)c1cccs1)C(C)C` (stereo not drawn), inactive: -9.59%; as for `COc1ccc(-c2cc3ccc(O)c(CN4CCOCC4)c3oc2=O)cc1OC`, inactive: -14.7%.
As for `Cc1ccc(-c2nc3sc(CCNC(=O)c4ccc(Br)o4)c(C)n3n2)cc1`, the figure is inactive: -11.6%; as for `CCCCOc1ccc(C(=O)Nc2cccc(-c3nc4cccnc4s3)c2)cc1`, inactive: 0.783%; as for `COc1ccc(N(C)C(=O)c2cn(C3CCCCC3)c(=O)c3c2c2ccccc2n3C)cc1`, inactive: -22.3%.
The same measure for `COc1ccc(C2=NN(CC(=O)NCCc3ccc(OC)c(OC)c3)C(=O)CC2)cc1`: inactive: 1.37%.
`CCn1ccc2cc(S(=O)(=O)N3CCCN(C(=O)Nc4cccc(Cl)c4)CC3)ccc21`: the “activity change, negative = cytotoxicity” value is inactive: 0.876%.
The same measure for `Cc1ccc(NC(=O)NCCc2c(C)nn(C)c2C)cc1Cl`: inactive: -5.42%; for `CCc1ccc(NC(=O)c2sc(-n3nc(C)c(Cc4ccc(OC)cc4)c3C)nc2C)cc1`: inactive: -7.37%; for `COc1cccc(NC(=O)CN2C(=O)c3cccnc3Oc3ccc(Cl)cc32)c1`: inactive: -0.889%.
As for `COc1ccc(N(C)C(=O)CCn2cnc3onc(-c4ccc(F)cc4)c3c2=O)c(OC)c1`, the figure is inactive: -9.8%; as for `COC(=O)c1c(-c2cccs2)csc1NC(=O)COc1ccc(C(C)(C)C)cc1`, inactive: 0.269%.
As for `CCOc1ccccc1C1C(C(=O)N2CCCCC2)=C(C)Nc2nc3ccccc3n21` (stereo not drawn), the figure is inactive: 6.64%; as for `CCOc1ccccc1NC(=O)c1nn(-c2ccc(C)cc2)c(=O)n(C)c1=O`, inactive: -21.6%.
Regarding `Cc1ccc(C(=O)Nc2ccc(-c3cn4cccnc4n3)cc2)cc1C`, the “activity change, negative = cytotoxicity” value is inactive: 5.73%.
The same measure for `COc1ccccc1CNc1ccc(-c2nc(-c3cccnc3)no2)cc1[N+](=O)[O-]`: inactive: 28.2%.
As for `Cc1cccc(OCC(=O)N(Cc2cccs2)c2ccc(Cl)cc2)c1C`, the figure is inactive: -13.7%; as for `CCCCN(CCCC)C(=O)c1cc2c(=O)n3cccc(C)c3nc2s1`, inactive: -3.32%.
The same measure for `COc1ccc(C2CC(=O)N(CC(=O)Nc3cc(C)ccc3C)c3ccccc3S2)cc1` (stereo not drawn): inactive: 7.79%; for `CCOC(=O)c1cccc(NC(=O)[C@@H](c2ccccc2)N2Cc3ccccc3C2=O)c1`: inactive: 0.71%; for `Cc1c(-c2nsc(NC(=O)c3ccccc3)n2)nnn1-c1ccc(C(F)(F)F)c(Cl)c1`: inactive: 19.5%.
Turning to `O=C1c2oc3ccccc3c(=O)c2C(c2ccccc2)N1Cc1ccc2c(c1)OCO2` (stereo not drawn), the “activity change, negative = cytotoxicity” value was inactive: 0.876%.
The same measure for `CCN1C(=O)c2ccccc2Sc2ccc(C(=O)NCCCN(CC(C)C)CC(C)C)cc21`: inactive: -26.8%; for `Cc1cc(C)c(NC(=O)Cc2csc(C)n2)c(Cl)c1`: inactive: 1.14%.
The same measure for `CCC(=O)N1c2ccccc2CC1C(=O)NCc1ccc(OC(C)C)cc1` (stereo not drawn): inactive: 9.71%; for `CCN(CCCNC(=O)Cn1ncc2c([nH]c3ccc(C)cc32)c1=O)c1cccc(C)c1`: inactive: 18.6%.
Consider `CCc1ccccc1NC(=O)c1ccc2c(c1)N(Cc1cccc(Cl)c1)C(=O)c1ccccc1S2(=O)=O`, for which the “activity change, negative = cytotoxicity” value is inactive: 1.77%.
As to `CCOc1ccc(-c2nc(SCC(=O)Nc3ccc4c(c3)OCO4)c(-c3ccc(F)cc3)[nH]2)cc1`, the “activity change, negative = cytotoxicity” value is inactive: 1.87%.
As for `COc1ccc(C2CC(=O)Nc3c2c(C)nn3-c2nncc(-c3ccc(C)cc3)n2)c(OC)c1OC` (stereo not drawn), the figure is inactive: -8.28%; as for `Cc1cccc(CCNC(=O)c2sc3nc4n(c(=O)c3c2C)CCCC4)c1`, inactive: -2.43%; as for `O=C1CSC2(C(=O)N(Cc3ccccc3F)c3ccccc32)N1c1ccc(F)cc1` (stereo not drawn), inactive: 16.1%.
As for `COc1cc(NC(=O)c2ccc(C)cc2)ccc1NC(=O)c1cc2ccccc2o1`, the figure is inactive: -1.21%; as for `O=C(NCCc1ccccc1)c1ccc(CS(=O)(=O)c2ccc(Br)cc2)o1`, inactive: 12%.
The same measure for `COc1ccc(-n2ccnc2SCC(=O)Nc2ccc(F)cc2F)cc1`: inactive: 1.9%; for `Cc1cc2nn(-c3ccccc3)nc2cc1NC(=O)c1cccc2c(Cl)cccc12`: inactive: 4.39%; for `CCSc1nnc2n(-c3cccc(C)c3)c(=O)c3c4c(sc3n12)CCCC4`: inactive: -7.89%.
With `COc1ccc(CCC(=O)N2CCc3c([nH]c4ccccc34)C2c2ccc(F)cc2)cc1` (stereo not drawn), the “activity change, negative = cytotoxicity” value is inactive: -6.01%.
As for `Cc1ccc2onc(CNC(=O)N3CCN(c4cccc(C)c4C)CC3)c2c1`, the figure is inactive: -11.4%.
The same measure for `Cc1ccc(NC(=O)Nc2ccc3c(c2)N(C)C(=O)c2ccccc2S3)c(C)c1`: inactive: -29.9%.
